About 12,000 (3.5%) of roughly 340,000 compounds were called active. This list was built around the results that the source calls inconclusive (neither active nor inactive); the mix of calls is not that of the screen. Calls follow the shape of the dose curve; as a rule, active = well fitted inhibition curve with a large enough effect; inconclusive = small, poorly fitted or top-dose-only effect, or another doubt; inactive = no such curve, though single readings can be large or run the other way. Potencies of inconclusive entries are left out as doubtful fits.
Experiment: qHTS Assay for Inhibitors of Hepatitis C Virus (HCV)
Settings: Huh7.5.1 HCVcc-Cre (HCVcc is cell-culture hepatitis C virus) infection, luciferase reporter, 44 h; activity change, negative = inhibition: at 41.8 µM (top of the series) unless noted
Procedure, shortened: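 Whole-lifecycle infectious HCVcc-Cre system; cells 1,000/well, compound then virus (~0.5 moi) added 4 h after plating, 44 h culture. Luciferase read 15 sec following 15 min substrate incubation, room temp.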
% is scaled to controls: 0 for no effect and ±100 for the full control effect; potency is read from the fitted curve at half-maximal effect; tags tell the direction and shape of the fitted curve.

| SMILES | activity change, negative = inhibition | Potency |
| --- | --- | --- |
| O=C(c1ccc2nc(-c3ccco3)c(-c3ccco3)nc2c1)N1CCN(c2ncccn2)CC1 | inactive: -26.1% |  |
| Nc1c(S(=O)(=O)c2ccccc2)c2nc3ccccc3nc2n1Cc1ccco1 |  | inconclusive [inhibitor, single point] |
| COC(=O)c1c(-c2cccnc2)csc1NC(=O)c1cc(C)on1 |  | inconclusive [inhibitor, partial curve] |
| COCCCN1CC(=O)N2C(c3cccc(OC)c3)c3[nH]c4ccccc4c3C[C@H]2C1=O (some centres undefined) | inactive: 10.4% |  |
| CCn1c(O)c(N=NC(=O)c2cccs2)c2ccccc21 |  | inconclusive [inhibitor, single point] |
| COc1ccccc1CNC(=O)CCNC(=O)Cn1ccc2ccccc2c1=O |  | inconclusive [inhibitor, single point] |
| CCCNC(=O)c1ccccc1NC(=O)c1cccc(-n2cnnn2)c1 |  | inconclusive [inhibitor, partial curve] |
| Nc1nn2cc(-c3ccc(Br)cc3)nc2c2ccccc12 |  | inconclusive [inhibitor, single point] |
| Cc1ccc2c(C(=O)CCl)c(C)[nH]c2c1 |  | inconclusive [inhibitor, single point] |
| CC(=O)O[C@H]1C[C@@]2(C)[C@@H](C[C@@H](O)[C@H]3[C@@]4(C)CC[C@@H](O)[C@@H](C)[C@@H]4CC[C@@]32C)/C1=C(\CCC=C(C)C)C(=O)O |  | inconclusive [inhibitor, single point] |
| COc1cnc(-c2ccccn2)nc1Oc1ccccc1Cl |  | inconclusive [inhibitor, single point] |
| COc1cc2c(cc1OC)C(C)N(C(=O)CCc1c[nH]c3ccccc13)CC2 (centres undefined) |  | inconclusive [inhibitor, partial curve] |
| O=C(COc1cccc(C(F)(F)F)c1)NCC(c1cccs1)N1CCOCC1 (centres undefined) |  | inconclusive [inhibitor, partial curve] |
| CN1CCN(c2nc(-c3ccccc3)nc(-c3ccc(F)cc3)c2C#N)CC1 |  | inconclusive [inhibitor, single point] |
| O=C(Cc1cccs1)N1CCN(c2nc(-c3ccc(Cl)cc3)cs2)CC1 |  | inconclusive [inhibitor, single point] |
| Cc1ccc(CN2CC(C(=O)NCCC3=CCCCC3)CC2=O)cc1 (centres undefined) | inactive: 5.28% |  |
| CCCCCCn1c(N2CCN(c3ccccc3)CC2)nc2c1c(=O)n(C)c(=O)n2C |  | inconclusive [inhibitor, single point] |
| COc1ccccc1NC(=O)NCC1CC1(Cl)Cl (centres undefined) | inactive: -13.9% |  |
| O=C(c1ccccc1)c1ccccc1C(=O)N1CCN(Cc2ccccc2F)CC1 |  | inconclusive [inhibitor, single point] |
| CCOc1cc(/C=N/NC(=O)N/N=C/c2ccc(O)c(OCC)c2)ccc1O |  | inconclusive [inhibitor, full curve] |
| CSc1cccc(NC(=S)N2CCC(N(C)C3CCCC3)CC2)c1 |  | inconclusive [inhibitor, partial curve] |
| CC1CC(=O)c2c(cc3c(-c4c(O)cc(O)c5c(O)c6c(cc45)OC(C)CC6=O)c(O)cc(O)c3c2O)O1 (centres undefined) |  | active: 4.47 µM |
| O=C(COC(=O)c1cc(=O)[nH]c2ccccc12)Nc1nc(-c2ccc(F)cc2)cs1 | inactive: -25.6% |  |

| SMILES | activity change, negative = inhibition | Potency |
| --- | --- | --- |
| COc1ccc(Nc2cc(C)c3cc([N+](=O)[O-])ccc3n2)cc1 |  | inconclusive [inhibitor, single point] |
| c1ccc(CSc2nnc(SCc3ccccn3)s2)nc1 | inactive: -6.09% |  |
| CC(C(=O)Nc1ccccc1)N(c1cccc(Cl)c1)S(C)(=O)=O (centres undefined) |  | inconclusive [inhibitor, single point] |
| CCCCOc1ncnc2c1[nH]c1ccc(OCC)cc12 | inactive: 11.3% |  |
| CCOc1ccc(C(=O)Cn2cnnc2C#N)cc1 | inactive: 2.53% |  |
| COc1ccc(Cc2nc3ccc(C(=O)NCCCSC)cc3o2)cc1OC | inactive: 0.917% |  |
| O=C1NC2(CCCCC2)C(=O)N1/N=C/c1ccc(O)cc1O | inactive: 2.61% |  |
| COc1ccc(S(=O)(=O)N(CCCN2CCCC2=O)Cc2cc3c(C)cc(C)cc3[nH]c2=O)cc1 |  | inconclusive [inhibitor, partial curve] |
| O=C(N/N=C/c1cccc2ccccc12)c1cc2ccccc2o1 |  | inconclusive [inhibitor, partial curve] |
| COc1ccccc1-c1c(C)nn2c(N3CCC(C(N)=O)CC3)cc(C)nc12 | inactive: 2.16% |  |
| CCCn1cnc2c(SCc3ccccc3F)nc(N)nc21 |  | inconclusive [inhibitor, single point] |
| CC(C)CNC(=S)N1CCN(c2nc3ccccc3s2)CC1 |  | inconclusive [inhibitor, single point] |
| COC(=O)c1cccc(NC(=O)C2COc3ccccc3O2)c1 (centres undefined) |  | inconclusive [inhibitor, partial curve] |
| CC(=O)c1cn(CCOc2ccccc2C)c2ccccc12 |  | active: 0.794 µM |
| CCc1ccccc1NC(=S)/N=C(\N)Nc1nc(C)c2cc(C)ccc2n1 |  | inconclusive [inhibitor, full curve] |
| O=C(CSc1nc(-c2ccco2)cc(C(F)(F)F)n1)N1CCSCC1 |  | inconclusive [inhibitor, full curve] |
| Cc1cc(C)cc(NC(=S)Nc2ccccn2)c1 |  | inconclusive [inhibitor, single point] |
| COc1cc(OC)cc(-n2nnnc2SCC(=O)NC2CCCC2)c1 |  | inconclusive [inhibitor, full curve] |
| O=C(N/N=C\c1ccc(Sc2ccccn2)o1)c1cccc(F)c1 | inactive: -2.85% |  |
| O=C(NCc1nnc(SCc2ccc(F)cc2)n1-c1ccc(F)cc1)C12CC3CC(CC(C3)C1)C2 |  | inconclusive [inhibitor, single point] |
| O=C(c1ccc2ccccc2n1)N1CCN(c2ccccc2)CC1 | inactive: 1.06% |  |
| CCOc1cc(/C=N/NC(=O)c2cc(C3CC3)[nH]n2)ccc1O | inactive: -1.48% |  |
| COCC1CCCN(C(=O)c2cc(COc3cccc4cccnc34)on2)C1 (centres undefined) |  | inconclusive [inhibitor, single point] |

| SMILES | activity change, negative = inhibition | Potency |
| --- | --- | --- |
| COc1ccc(S(=O)(=O)Nc2c(O)ccc3ccccc23)cc1OC |  | inconclusive [inhibitor, single point] |
| Cn1cc(Br)c(C(=O)Nc2sc3c(c2C(N)=O)CCC3)n1 |  | inconclusive [inhibitor, partial curve] |
| O=[N+]([O-])/C=C\c1ccc(N2CCOCC2)cc1 |  | inconclusive [inhibitor, single point] |
| COc1ccc(CCNC(=S)Nc2ccc(C(C)C)cc2)cc1 |  | inconclusive [inhibitor, single point] |
| CCOC(=O)c1c(NC(=O)COC(=O)Cn2cnc3ccccc32)sc(C)c1C |  | inconclusive [inhibitor, single point] |
| Nc1c(C(=O)NCc2ccco2)nnn1-c1ccccc1 | inactive: 23.3% |  |
| COc1ccc(CC(=O)Nc2cccc3ccccc23)cc1OC |  | inconclusive [inhibitor, single point] |
| O=C(NCCCN1CCCC1)c1ccc2c(c1)N(Cc1ccccc1F)C(=O)c1ccccc1S2(=O)=O |  | inconclusive [inhibitor, partial curve] |
| COc1ccc(/C=N/NC(=O)CCSc2nc3ccccc3s2)cc1 |  | active: 3.55 µM |
| COC(=O)[C@@]1(C)[C@H]2C(=O)N(C)C(=O)[C@H]2[C@H]2CN=C(SCC(=O)c3ccccc3)N21 |  | inconclusive [inhibitor, full curve] |
| CCNC(=O)C1CCCc2c1[nH]c1ccc(Cl)cc21 (centres undefined) |  | inconclusive [inhibitor, single point] |
| COC(=O)c1cccc(NC(=O)c2ccc(OC)c(Cl)c2)c1 |  | inconclusive [inhibitor, partial curve] |
| COc1ccc(C(=O)N2CCN(Cc3cc(OC)c(O)c(OC)c3)CC2)cc1OC | inactive: -5.31% |  |
| CCCNC(=O)c1cc(-c2ccc(OC)cc2)n(CCCOC)c1C | inactive: 15.3% |  |
| Cc1cccc(NC(=O)c2ccc(NS(=O)(=O)c3cccc4cccnc34)cc2)c1 |  | inconclusive [inhibitor, single point] |
| O=C(c1cccc(N2C(=O)C3C4C=CC(C4)C3C2=O)c1)N1CCN(c2ccccc2Cl)CC1 (centres undefined) |  | inconclusive [inhibitor, single point] |
| Cc1ccc(Oc2ncccc2/C=N/OCc2ccc(Cl)c(Cl)c2)cc1 |  | inconclusive [inhibitor, partial curve] |
| COc1ccccc1-c1cc2nc(C)c(CCC(=O)NC(C)CCc3ccco3)c(C)n2n1 (centres undefined) |  | inconclusive [inhibitor, partial curve] |
| Cc1cccc(NC(=S)N/N=C(\c2ccccc2)C(C)C)c1 |  | inconclusive [inhibitor, single point] |
| O=C(Nc1cccc(Cl)c1)C1=Cc2cc(Cl)ccc2OC1 |  | inconclusive [inhibitor, full curve] |
| COc1ccc(Cn2c(C3CCCCC3)nc3c(c(=O)c4ccccc4n3C)c2=O)cc1 |  | inconclusive [inhibitor, partial curve] |
| CCn1c(SCC(=O)Nc2ccc(OC)cc2OC)nc2nc3c(cc2c1=O)COC(C)(C)C3 |  | inconclusive [inhibitor, partial curve] |
| CCC(=O)N1C(C(=O)N2CCCC2)CSC1c1ccc(OC)cc1 (centres undefined) |  | inconclusive [inhibitor, single point] |

— PubChem BioAssay AID651820 (National Center for Advancing Translational Sciences (NCATS), 2012)
